Data from the RNAGym collection of RNA variant scans (doi:10.7554/elife.90254).
Read counts are not given, so values of variants with three or more changes are uncertain.

B1: LINE1-mini (parent)
chain: GGCAGAGCUCAACACAGCGUGGCAAAGUGGCUGUGGCUAGACUGCC

Variants of: B1
Assay: self-cleavage, relative activity (ratio to wild type); higher = more cleavage; in vitro, sequencing; the parent is a self-cleaving ribozyme

Variant | self-cleavage
GGCGGAGCUCAACACAGCGUGGAAAAGUGGCUGUGGCUAGUCUGCC [A4G C23A A41U] | 0.5
GGCAGAGCUCAGCACAGCGUGGCAAAGUGGCAGCGGCUAGACUGCC [A12G U32A U34C] | 0.02
GGCAGAGCUCAACACCACGUAGCCAAGUGGCUGUGGCUUGACUGCC [A16C G17A G21A A24C A39U] | 0.01
GGCUGAGCUCAACAUAGCGUGGCAAAGUGGCUGUGGCUAGAUUGCC [A4U C15U C42U] | 0.13
GGCAGAGCUCAGCACAGCGUGCCAAAGUUGCUGUGGCUAGACUGCC [A12G G22C G29U] | 0.01
GUCAGAGCUAAACACAGCGUGGCAAAGAGGCUGUUGCUAGACUGCC [G2U C10A U28A G35U] | 0.01
GGCAGAGCUCAACACAGCUUGGUAAAGUGGCUGUGGCUAGACUGCU [G19U C23U C46U] | 0.71
GGCAGAGCUCAACACAGUGUGGCAAAGUGGCUGUGGCCAGACUCCC [C18U U38C G44C] | 0.11
GGCAGAGCUCAACACACCGUGGCAAAUUGGCCGUGGCUAGACUGCC [G17C G27U U32C] | 0.04
GGCAGAGUUCAACACAGCGUGGCAAAGUGGCUGUCUCUAGACUGCC [C8U G35C G36U] | 0.05
GGCAGAGCUCAGCACAGCGUGGCAACGUGGCUGUGGCUAGUCUGCA [A12G A26C A41U C46A] | 0.07
GGCACAGCUCAACACAGCGUGGCAGACUGGCUGUGUCUAGACUGCC [G5C A25G G27C G36U] | 0.07
UGCAAAGCUCAUCACAGCGUGGCAAAGUGGCUGUGGCUAGACUGCC [G1U G5A A12U] | 0.41
GGCCGACCUCAACACAGCGUGGCAAAGUGGCUGUGGCUUGACUGCC [A4C G7C A39U] | 1.52
GACAGAGCUCAGCACAGCGUGGCAAAGUGGCAGCGGCUAGACUGCA [G2A A12G U32A U34C C46A] | 0.03
GGCUGAGCUCAACACGGCGUGGCAAGGUGGCUGUGGCUAGACUGCC [A4U A16G A26G] | 0.04
CGCUGAGCUCAACACAGCGUGGCGAAGUGGCUGUGGCUAGACUGCC [G1C A4U A24G] | 0.05
GGCAGAGGUCAACACAGCGUGGACAAGUGGCUGUGGCUAGACUGCC [C8G C23A A24C] | 0.12
GGGAGAGCUCACCACAGCGUGGCACAGUGUCUUUGGCUAGACUUCC [C3G A12C A25C G30U G33U G44U] | 0

Variant | self-cleavage
GGCAGAGCUCAACACAGCGUGGCAAAGUGGCUGUUGCUGGAUUGCC [G35U A39G C42U] | 0.13
GGCAGAGCUCAACACAGCGUGGCAAAGUGGCCGUGGCUACACUGCA [U32C G40C C46A] | 0.01
GGCAGAGCUCAACACACCGUCGCAAAGUGGCUGUGGCUAGAGUGCC [G17C G21C C42G] | 0.04
GUCAGAGCUCAACACGGCGUGGCAAAGUUGCUGUGGCUAGACUGCC [G2U A16G G29U] | 0.24
GACAGAGCUCAACACAGCGUGGCAAAGUGGCUGUGUAUAGACUGCC [G2A G36U C37A] | 0.38
GACAGAGCUCAAUACAGCUUGGCAAAGUGCCUGUGGCUAGACUGCC [G2A C13U G19U G30C] | 0.09
GGCAGAGCUCAACAGAGCGUGGCAAUGUGGCUGUGGCUAGACAGCC [C15G A26U U43A] | 0
GGCAGUGCUCAACACAGCGUGGCAAAGUGGCUUUGGCAUGACUGCC [A6U G33U U38A A39U] | 0.18
GGCAUAGCUCAACCCAGCAUGGCAAAGUGGCUGUGGCUAGACUGCC [G5U A14C G19A] | 0.31
GGCAGGGCUAAACACAGCGUGGCAAAGUGGCUGUGGCUAGACUCCC [A6G C10A G44C] | 0.03
GGCAGAGCUCAACACAGACUGGCAAAGUAGCUGUGGCUAUACUGCC [C18A G19C G29A G40U] | 0.11
GGCCGAGCUCAACACAGCGUGGCAAAUUGGCUGUGGUUAGACUGCC [A4C G27U C37U] | 0.13
GGCAGCGUUCAACACGGCGUGGCAAAGUGGCUGUGGCUAGACUGCC [A6C C8U A16G] | 0.03
GGCAGAGCUCAACACAGGGCGGCAAAGUGGUUGUAGCUAGACUGAC [C18G U20C C31U G35A C45A] | 0.02
AGCAGAGCUCAACACAGCGUGGCAAAGUGGCUGUGGCUAGCAUGGC [G1A A41C C42A C45G] | 0.03
GGAAGAGCGCAACACAGCGUGGCAAAGUGGCUGUGGAUAGACUUCC [C3A U9G C37A G44U] | 0.16
GAAAGAGGUAAACACAGCGUGGCAAAGUGGCAGUGGCUAGACUGCC [G2A C3A C8G C10A U32A] | 0.07
GGCAGAGGUCAACAAAGCGUGGCAAAGGGGCUGUGGCGAGACUAAC [C8G C15A U28G U38G G44A C45A] | 0.06
GGCAGAACUCAACACAGCGUAACAAAGUCGCUGUGGCUAAACUGCC [G7A G21A G22A G29C G40A] | 0.01

Variant | self-cleavage
GGCAGAGCUAAACACAGUGUGGCAAAGUGGCUGUAGCUAGACUGCC [C10A C18U G35A] | 0.02
GGCUGAGCUCAACACAGAGUGCCAAAGUGGCUCUGGCUAGACUGCC [A4U C18A G22C G33C] | 0.03
GGCAGAGCUCCACACAGCGUGUAAAAGUGGCUGUGGCUAGACUGCC [A11C G22U C23A] | 0.05
GGCAGAGCUCUACACAGCGUGGCAAUGUGGCAGUGGCUAGAUUGCC [A11U A26U U32A C42U] | 0
GACAGAGCUCAACACAGAGUCGCAAAGUGGGUGUGGCUAGACUGCA [G2A C18A G21C C31G C46A] | 0.06
GGCAGAGCUCAACACAGCUGGGCAAAGUGGUUGUGGCUAGACUUAC [G19U U20G C31U G44U C45A] | 0.15
GGCACGGCUCAACACAGCGUGGCAAAGUGGCUGUGGCUCGACCGCC [G5C A6G A39C U43C] | 0.04
GGCAUAGCUCAACACAGAGUGGCAGAGUGCCUGUGGCUAGACUGCC [G5U C18A A25G G30C] | 0.01
GGCAGAGGUCAACACAGCGUGGCAAAGUGGCUGUGGCUAGAACGCC [C8G C42A U43C] | 0.37
GGCGGAGCUCAACCCAGCGAGGCAAAGUGGCUCUAGCUAGAAUGCC [A4G A14C U20A G33C G35A C42A] | 0.03
GGAAGAGCUCAACACAGCAUGGCUACGUGCCUGUGGCUAGACUGCC [C3A G19A A24U A26C G30C] | 0.4
GGGAGAGCUUAAAACAGGGUGGCAAAGUGGGUGUGGCUAGACUGCC [C3G C10U C13A C18G C31G] | 0.02
GGCAGAGCCAAACACAGCGUGGCAAAGUGGCUGUUGCUAGACUGCC [U9C C10A G35U] | 0.04
GGGAGCGCUCAACACAGUGUGGCAAUGUGGGUGUGGCUAGAUUGCC [C3G A6C C18U A26U C31G C42U] | 0.05
GGCAGAGCUCAAAACAGCGAGGCAAAGUGGCUGUGGCUAGACUACC [C13A U20A G44A] | 0.07
GGCAGAGCUCAACACAGCGUGGCGUAGUGGCUAUGGCUAGACUGCC [A24G A25U G33A] | 0.04
GACAGAGCUCAACGGAGCGUGGCAAAGUGGCUGUACAUAGACUGCC [G2A A14G C15G G35A G36C C37A] | 0.03
GGCAGAGCUCAACACAGUGUGGCAAAGUGUCUGGGGCUAGACUGCC [C18U G30U U34G] | 0.04
